Measurements taken from article PMC4336329 (PLoS ONE, 2015).
Hit rate of the full screen: of about 310,000 compounds, about 2,200 (0.71%) showed an effect of 50% or more. Effects have a minus sign here. This is one part of the list.

molecular target: human ether-à-go-go-related gene (hERG) potassium channel (human, UniProt Q12809); experiment: primary screen, population patch clamp on CHO cells stably expressing hERG
Sequence (Q12809 whole entry, looked up): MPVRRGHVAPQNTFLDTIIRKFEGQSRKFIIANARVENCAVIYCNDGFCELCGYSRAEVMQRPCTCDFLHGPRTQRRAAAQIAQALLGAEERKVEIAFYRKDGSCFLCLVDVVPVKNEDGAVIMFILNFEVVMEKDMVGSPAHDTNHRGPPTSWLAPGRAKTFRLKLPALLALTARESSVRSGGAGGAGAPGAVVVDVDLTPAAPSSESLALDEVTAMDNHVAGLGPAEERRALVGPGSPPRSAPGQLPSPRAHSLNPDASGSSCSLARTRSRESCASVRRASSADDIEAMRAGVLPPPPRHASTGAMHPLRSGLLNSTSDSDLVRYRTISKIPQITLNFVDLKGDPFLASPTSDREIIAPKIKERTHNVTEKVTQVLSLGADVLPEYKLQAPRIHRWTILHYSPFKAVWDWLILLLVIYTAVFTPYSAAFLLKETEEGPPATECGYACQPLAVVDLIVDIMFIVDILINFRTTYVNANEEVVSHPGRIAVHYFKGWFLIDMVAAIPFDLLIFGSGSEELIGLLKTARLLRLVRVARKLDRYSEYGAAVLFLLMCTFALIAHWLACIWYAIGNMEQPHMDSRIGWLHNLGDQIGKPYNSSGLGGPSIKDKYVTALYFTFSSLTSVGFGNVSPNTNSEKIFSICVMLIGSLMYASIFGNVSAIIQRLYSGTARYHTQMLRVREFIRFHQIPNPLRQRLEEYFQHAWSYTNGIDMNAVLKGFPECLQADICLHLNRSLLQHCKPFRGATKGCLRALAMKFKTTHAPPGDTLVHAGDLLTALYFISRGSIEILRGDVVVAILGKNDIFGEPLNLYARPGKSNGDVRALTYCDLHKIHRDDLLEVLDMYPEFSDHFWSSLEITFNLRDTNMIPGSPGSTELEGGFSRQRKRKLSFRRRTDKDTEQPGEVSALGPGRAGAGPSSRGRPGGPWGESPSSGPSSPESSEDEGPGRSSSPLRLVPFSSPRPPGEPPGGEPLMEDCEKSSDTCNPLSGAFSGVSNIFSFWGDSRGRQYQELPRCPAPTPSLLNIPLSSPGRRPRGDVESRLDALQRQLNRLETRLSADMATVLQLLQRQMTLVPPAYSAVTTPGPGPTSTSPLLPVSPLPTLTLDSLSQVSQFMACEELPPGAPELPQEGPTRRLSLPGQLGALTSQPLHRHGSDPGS

SMILES	hERG current change (%, negative = inhibition) at 1uM
Cc1cc(OCC(=O)NCc2ccncc2)ccc1Cl	12.1%
O=C(OCn1nnc2ccccc2c1=O)c1ccc(Br)o1	6.34%
CCN(CC)CCOC(=O)C(Cc1cccc2ccccc12)CC1CCCO1.O=C(O)C(=O)O (stereo not shown)	-20.2%
CCCCOc1ccc(/C=C/C(=O)OCC(=O)NC(=O)NCC(C)C)cc1OCC	4.95%
O=C(Nc1cccc(C(F)(F)F)c1)C1CCN(S(=O)(=O)c2cccnc2)CC1	14%
COc1ccccc1CNC(=O)C(CC(C)C)NC(=O)C1CCC(C)CC1 (stereo not shown)	15.2%
C/C(Cn1nc([N+](=O)[O-])cc1C)=N\NC(=O)c1ccc(O)cc1O	12.7%
CC(=O)c1cc(C(=O)Nc2ccc(C(=O)O)cc2)oc1C	21.5%
CCN(CC)C(=O)C(=O)c1cn(CC(=O)NCc2ccc3c(c2)OCO3)c2ccccc12	8.59%
C/C(=C\c1ccccc1)CN1CCN(C)CC1	15%
N/C(=N\OC(=O)Cc1ccc(Cl)cc1)c1cccnc1	-2.59%
O/N=C/c1cc(Br)cc(Br)c1OCc1ccccc1	13.5%
Cc1ccc(NC(=O)C2CCCCC2)cc1C	0.599%
C=CCn1ccc(=NC=C(C#N)C#N)c2ccccc21	6.38%
COC(=O)CC(NC(=O)c1cccs1)c1ccc(OC)c(OC)c1 (stereo not shown)	12.1%
COc1cccc(NC(=O)CN(C)CC(=O)c2c(N)n(Cc3ccccc3)c(=O)n(C)c2=O)c1	7.16%
O=C(Nc1ccc(NC(=O)C2CC2)cc1)c1ccco1	21.6%
C[C@H](N)c1nnc(SCc2ccc(Cl)cc2Cl)o1.Cl	-11.3%
O=C1CCCCN1CCCC(=O)N1CCCC(Nc2ccccc2)C1 (stereo not shown)	8.26%
O=C(NN=C(Cc1ccccc1)Cc1ccccc1)C1CC1	6%
COc1cc(C(=O)ON=C2C3CC4CC(C3)CC2C4)cc(OC)c1OC	25.1%
CN(C)S(=O)(=O)c1ccc(Nc2nc(C3CC3)nc3c2nnn3Cc2ccccc2Cl)cc1	14.1%
CC(C)Cn1nc(C(=O)NCc2ccccc2CN2CCCC2)c2ccccc2c1=O	-6.93%

SMILES	hERG current change (%, negative = inhibition) at 1uM
CCc1nc(SCC(=O)N2CCCC2)c2ccccc2n1	4.06%
COc1ccc(-c2cc(=O)c3ccccc3s2)cc1	8.85%
O=C(Cc1ccccc1[N+](=O)[O-])N/N=C/c1cccnc1	10.2%
CCCCNc1ccc(C(CC(N)=O)NC(=O)c2cc(C)cc(C)c2)cc1[N+](=O)[O-] (stereo not shown)	12.2%
CCN(CC)C(=O)c1ccc2c(c1)C1C=CCC1C(C(=O)O)N2 (stereo not shown)	7.12%
COc1c(Cl)cc(-c2noc(C)c2C(=O)NCc2ccccc2)cc1Cl	5.03%
CCOC(=O)c1cnc(-n2nc(C)cc2C)nc1Nc1ccc(N(C)C)cc1	-3.63%
COc1ccc(S(=O)(=O)N(CC(=O)N2CCOCC2)c2cc(Cl)ccc2OC)cc1OC	-4.36%
COCCN(C(=S)Nc1c(C)cccc1C)C(C)c1cccs1 (stereo not shown)	5.83%
O=C(NC1CC2CCCC(C1)N2C(=S)Nc1ccccc1Cl)C1CC1 (stereo not shown)	13.6%
Cc1ccc(-n2c(O)c(C=NCCN3CCOCC3)c(=O)[nH]c2=O)cc1	18.2%
COc1ccc(C(=O)N/C(=C/c2ccccc2F)C(=O)NCCN2CCOCC2)cc1OC	14.7%
COc1ccc(C(=O)NCC(c2ccccc2)N2CCCC2)cc1S(=O)(=O)N1CCOCC1 (stereo not shown)	9.56%
Cc1ccc(-n2nnnc2-c2cccc(C)c2)cc1	10.3%
O=C1OCCN1C(=O)[C@H]1[C@H](c2ccc(F)cc2)C(c2ccc(F)cc2)=NN1c1ccccc1	5.41%
COc1ccc(NC(=S)NN2CCN(C)CC2)cc1	14.6%
c1ccc(C2CC(c3ccccc3)n3ncnc3N2)cc1 (stereo not shown)	8.32%
Cc1cc(NC(=O)CSc2nc(=O)n(CCCN(C)C)c3c2CCCC3)no1	10.8%
CN(/C(=N/S(=O)(=O)c1ccccc1)c1ccccc1)S(=O)(=O)c1ccccc1	9.03%
C=CCn1c(SCC(=O)N2CCCC2)nc2cc(C(=O)NCC3CCCO3)ccc2c1=O (stereo not shown)	4.24%
CSc1ccc(/C=C/C(=O)NC(=O)c2ccccc2O)cc1	13.1%
C=C(C)CSc1nnc(CCCCCNC(=O)OC(C)(C)C)o1	2.66%
Cc1ccccc1NC(=O)CCC(=O)OCC(=O)c1cccc([N+](=O)[O-])c1	5.3%
